Measurements from the BET-seq Pho4 binding data (Le et al. 2018).
The list shows a part of the results. These are noisy estimates, calculated here from bound and input reads.

biological target: T1, Pho4 (S. cerevisiae) (UniProt P07270); test: relative binding free energy (BET-seq); higher = weaker binding; settings: reference: library average
T1 sequence: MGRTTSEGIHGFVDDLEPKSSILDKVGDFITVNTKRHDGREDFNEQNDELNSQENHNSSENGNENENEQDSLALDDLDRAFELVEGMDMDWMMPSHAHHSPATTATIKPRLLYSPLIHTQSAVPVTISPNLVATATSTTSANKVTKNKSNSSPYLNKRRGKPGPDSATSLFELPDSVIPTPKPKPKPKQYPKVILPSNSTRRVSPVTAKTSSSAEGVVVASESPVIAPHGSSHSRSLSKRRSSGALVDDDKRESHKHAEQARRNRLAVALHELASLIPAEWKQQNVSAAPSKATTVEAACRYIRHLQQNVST

Sequence | relative binding free energy [kcal/mol]
GAGGCCACGTGTTAGT | 0.06
GTATACACGTGGTAAG | -0.1
TATGACACGTGATGAT | 0.15
AATATCACGTGGTATA | 0.11
GTCTACACGTGGTTTG | 0.24
ATGTGCACGTGTGCGG | -0.04
ATACGCACGTGTGGGG | -0.08
AAGCTCACGTGTAGTG | 0.15
GGCGACACGTGTGAGG | 0.1
ATAATCACGTGGATTT | 0.11
TGCTGCACGTGTGGCT | 0
ATGGCCACGTGGTAAG | -0.03
AGTGACACGTGTTCTG | -0.13
GTAGTCACGTGCGGGC | 0.19
TGGTTCACGTGGGCGG | 0.17
ACCTTCACGTGTGGTT | 0.31
ACTGTCACGTGGGCGT | -0.2
TAAATCACGTGGGTCA | 0.03
TGAGACACGTGCTGGG | -0.04
GTATGCACGTGAGAGT | 0.12
TCAGGCACGTGGTTGG | -0.08
ATAGGCACGTGTAGGC | -0.04
TGTTGCACGTGTGGGG | 0.08
TTATACACGTGTTAGC | 0.08
AGGTGCACGTGGAGAC | -0.03
GGTATCACGTGTTAAA | 0.21

Sequence | relative binding free energy [kcal/mol]
AATTTCACGTGTGTGT | 0.25
TGGTACACGTGTTTGG | 0.1
ATAATCACGTGGTTCG | 0.16
AGTAGCACGTGTCGAG | 0
GATGTCACGTGGCAGG | 0.1
GGACGCACGTGCAGGT | -0.07
TGATTCACGTGGGTTA | 0.22
TATTACACGTGGTCGG | -0.04
TTAGACACGTGTAATG | 0.15
GGCCACACGTGGAGGG | -0.03
AGGGTCACGTGGGGTT | -0.03
AGGTGCACGTGTATAG | -0.11
GAAATCACGTGAGTGT | 0.39
TATATCACGTGAGTGT | 0.36
GCGGTCACGTGGTGTT | 0.02
GGTATCACGTGCTAGT | 0.05
GCATACACGTGTTAGG | 0.11
GTGGTCACGTGTGTTG | 0.11
GGAGACACGTGGAGGT | -0.01
ATTAGCACGTGAGGCG | 0.07
CTGAGCACGTGGCGTG | -0.25
TGTTGCACGTGTAGAA | -0.01
GGGTCCACGTGTATTT | 0.22
GTATACACGTGGTGAA | 0.1
GAATACACGTGTAGTG | 0.25
AGTAGCACGTGGCGTT | -0.15

Sequence | relative binding free energy [kcal/mol]
TTCGGCACGTGAGGAA | 0.15
GTAATCACGTGGTTCG | 0.08
AGAAGCACGTGTGGGG | -0.07
TGAATCACGTGTTGGG | 0.23
AAATGCACGTGGAGTG | -0.04
CGCTTCACGTGTGTGG | 0.21
TTTCGCACGTGTTTTA | 0.07
CAGGGCACGTGAGGTT | 0.01
GTTTGCACGTGTATCG | 0.18
GGTATCACGTGAAGAT | 0.42
ATAGTCACGTGTTCGT | -0.01
ACATTCACGTGTATTT | 0.26
TAAGTCACGTGTGTTG | 0.04
GATTACACGTGGTTAT | 0.1
CGAGACACGTGTGTGG | 0.12
GTTCGCACGTGAGTTT | 0.26
CAAAGCACGTGGTGGA | 0.07
TATTTCACGTGAGCAG | 0.48
TTTGGCACGTGAGGCC | 0.15
GTGAGCACGTGTGGGG | -0.06
TGTGGCACGTGAGGTT | 0.17
GTGGGCACGTGTGATC | -0.01
GGTTACACGTGTTAGT | 0.07
GGAGTCACGTGAAAAG | 0.33
GGGGTCACGTGTATCG | 0.15
TTTCTCACGTGGCCGG | 0.17

Sequence | relative binding free energy [kcal/mol]
GTGATCACGTGGGCAT | -0.13
TGTAGCACGTGCAGAG | -0.14
GGTGGCACGTGGCATA | -0.09
CATTACACGTGGTATT | 0.04
TCTATCACGTGGTGGA | 0.18
TGGACCACGTGTGTTA | 0
GGTTTCACGTGTATTA | 0.34
ATAGTCACGTGAACGG | 0.27
GGCTTCACGTGCTGGG | 0.27
GGCGACACGTGAGCGG | 0.22
TTATCCACGTGGGGTG | -0.14
GATTTCACGTGAGTTG | 0.4
TGACGCACGTGTGTGA | -0.03
GAGTGCACGTGGTATG | -0.08
TATTCCACGTGTAGTT | -0.06
TCTCACACGTGTGGGG | 0.07
CTTATCACGTGGTGCG | 0.2
AGTTACACGTGGTCTT | 0.05
GTTTGCACGTGGAAAT | 0.17
TTTGCCACGTGTCTTT | -0.02
GAAATCACGTGGGGAT | 0.18
TGATTCACGTGGTTGA | 0.23
AGGTTCACGTGTAAGT | 0.41
GACTGCACGTGCGGGG | -0.17
ACTAGCACGTGGGGTG | -0.29
AGGTACACGTGGTAAT | 0.09

Sequence | relative binding free energy [kcal/mol]
GTCATCACGTGGTTAA | 0.21
TGTGGCACGTGAAGGG | 0.15
ATTGTCACGTGAGGAG | 0.19
TAAATCACGTGGGATG | 0.15
TTAAACACGTGGCAGG | 0.02
TTATTCACGTGTGCGC | 0.24
CTAGGCACGTGTGAGT | -0.14
TCAGTCACGTGGGGGT | -0.04
TCTTACACGTGGGGAG | -0.06
TTATACACGTGGGCGA | -0.15
AATTTCACGTGATGGT | 0.38
TATATCACGTGAGTAG | 0.22
AGCGGCACGTGGAGGC | -0.11
ATCGTCACGTGGTGTC | 0.08
TTATCCACGTGGTTAG | -0.03
GGAAGCACGTGCGAGT | -0.12
GGTTGCACGTGGTCAA | 0.04
GTTTGCACGTGAGTTT | 0.35
CTGTTCACGTGCGTGG | 0.16
GAAAGCACGTGTGAGT | 0.03
CATGGCACGTGATTGG | -0.06
TTGAACACGTGTAATG | -0.04
GCATACACGTGATGGG | 0.23
TGTCGCACGTGGCCGG | -0.15
AGGATCACGTGAAATG | 0.43
TTGGACACGTGAGTGG | 0.26

Sequence | relative binding free energy [kcal/mol]
CGATGCACGTGAAGGG | 0.28
TGTTACACGTGGTCGT | 0.01
ATCTACACGTGTGTTG | 0.04
CCTTACACGTGTGTTT | 0.18
TAGGTCACGTGTAGCG | 0.31
GAAATCACGTGGTAAT | 0.37
TGGATCACGTGTCATT | 0.07
TAGTCCACGTGGTGTA | -0.11
AATGTCACGTGATAAT | 0.24
GACTGCACGTGATGGG | 0.34
GAGGGCACGTGATGGG | 0.05
TGAGTCACGTGCAGGG | 0.06
AGTTGCACGTGTTATG | -0.01
GGTATCACGTGGCCGT | 0.17
GGGATCACGTGAGAAT | 0.5
GAGCGCACGTGGTATG | -0.04
AACTGCACGTGTGGGT | 0.03
CAGTTCACGTGTATCG | 0.42
TCATTCACGTGTAGTT | 0.18
GGTGGCACGTGTCTTG | -0.01
GGTTTCACGTGAGTGT | 0.46
AGGAGCACGTGTCGGA | 0
TCTGTCACGTGCGGGA | 0.07
TTGAACACGTGGTTGC | -0.06
CATTCCACGTGGGGTT | -0.04
GTGGTCACGTGTATAG | 0.16

Sequence | relative binding free energy [kcal/mol]
TGTTGCACGTGAGATT | 0.21
GTATGCACGTGTAGTA | -0.01
GAGGTCACGTGGAAAT | 0.39
TCGGTCACGTGAAAGG | 0.33
GCTGTCACGTGCGTGT | 0.04
ATTGTCACGTGGCAGT | 0.04
TGTATCACGTGGATTA | 0.11
GGTAGCACGTGTTAGA | -0.1
TGTTTCACGTGGTGTG | 0.22
CTGTGCACGTGAAGGA | 0.22
GAGGGCACGTGAATGG | 0.18
CGGTCCACGTGTGGCT | 0.21
GATTACACGTGAGGGG | 0.35
GGTATCACGTGCTTGG | 0.02
GTTCGCACGTGGTGTC | -0.13
AGAGTCACGTGGGTTA | 0.06
TTGTTCACGTGGTAGG | 0.31
TCAAGCACGTGAGGTG | 0.21
GTAATCACGTGAGGGC | 0.31
AATATCACGTGGTAGT | 0.02
TGGATCACGTGCTTTA | 0.18
GATATCACGTGGGTAG | 0.05
CGCGGCACGTGGGAGT | -0.2
TTTCTCACGTGGTCTG | 0.01
ATAGTCACGTGATTTT | 0.2
AGAGGCACGTGCGTGG | -0.22

Sequence | relative binding free energy [kcal/mol]
TTAAACACGTGGTGAT | -0.06
AATCGCACGTGGATTG | 0.09
AGTACCACGTGGGGGC | -0.23
GAGATCACGTGGGGCT | 0.07
ATTTGCACGTGCTTGC | 0.04
TGCAGCACGTGGAGTT | -0.06
GGTCGCACGTGAAGGT | -0.01
GCGTACACGTGTGTGG | 0.05
CTTGTCACGTGGGTTT | 0.07
GCGTGCACGTGGAGAG | 0.09
CTGTGCACGTGTGGAT | 0
TCATTCACGTGAGTTT | 0.37
TTGTACACGTGTTGAT | 0.21
GTGTGCACGTGCAGTT | 0.03
TCTTTCACGTGCGGGT | 0.16
ATGGGCACGTGCTTTT | -0.17
GAGTCCACGTGCGGGG | -0.09
CTTTTCACGTGAGGTA | 0.14
TAAGTCACGTGTTGTG | 0.14
TCGGGCACGTGATCGT | -0.04
TGACTCACGTGAGTGT | 0.26
TGTGTCACGTGTGCCG | 0.11
ATGTGCACGTGATTGC | 0.1
TAGTACACGTGAGATG | 0.38
CTATTCACGTGTGTAG | 0.17
TGGGTCACGTGGCTTT | 0.13

Sequence | relative binding free energy [kcal/mol]
TATCACACGTGATGGG | 0.27
TCGTGCACGTGGTAGT | -0.1
AGTTGCACGTGAATTA | 0.21
CGTAGCACGTGGAGAG | -0.07
AGTTACACGTGAGTTG | 0.28
GAGTGCACGTGTCAGG | 0.08
GTGGTCACGTGGGGGA | 0.09
ATCGGCACGTGTTATT | 0.1
AGATTCACGTGGAGGT | 0.3
TGAGGCACGTGATGGG | -0.04
CGGGGCACGTGAGTGT | 0.15
TTGTGCACGTGGAGTC | 0.01
ATTTACACGTGATTGA | 0.1
GAAGTCACGTGGTAAT | 0.19
GGGGACACGTGGTGAT | 0.09
GTTTACACGTGTAGCA | 0.28
AGTAGCACGTGTAGGG | 0.02
GTGTGCACGTGTCAGT | 0.08
TGTCTCACGTGTCAGT | 0.31
AATGTCACGTGGTATA | -0.04
ATCGTCACGTGTAAAG | 0.31
TAAGTCACGTGGTATG | 0.07
